Data from patent publication US10695350B2, “Methods of treating and preventing graft versus host disease” (priority 2013, dated 2020).

Assays:
[1] = system: Primary CD4+ T-cells from patients with active cGVHD; assay: CD4+ T-cell activation (CD69) in cells from patients with active cGVHD; details: 1 μM ibrutinib pretreatment vs DMSO; anti-CD3 6 hours
Healthy donor Th17 cells = assay: IL17 intracellular cytokine staining of TCR-stimulated Th17 cells; details: 30 minute pretreatment with 1 μM ibrutinib; 12 hours stimulation
[2] = system: CD4+CD25hiCD127dim CD49d-FoxP3+ Tregs; assay: in vitro T-cell suppression assay (CFSE division index of CD8+ responder cells); details: Tregs pretreated with 1 μM ibrutinib; 6 days
[3] = system: B-cell receptor pathway (pERK1/2, pBTK, pPLCγ2); assay: Immunoblot of B-cell receptor pathway activation in anti-IgM stimulated B-cells from cGVHD patients; details: 1 μM ibrutinib pretreatment; anti-IgM 45 minutes
[4] = system: patients with steroid-dependent/refractory cGVHD; details: 420 mg daily; planned study

C=CC(=O)N1CCC[C@@H](n2nc(-c3ccc(Oc4ccccc4)cc3)c3c(N)ncnc32)C1 [ibrutinib, (R)-1-(3-(4-amino-3-(4-phenoxyphenyl)-1H-pyrazolo[3,4-d]pyrimidin-1-yl)piperidin-1-yl)prop-2-en-1-one]
population of CD69+ CD4+ T-cells [1]: significant decrease | TCR-induced activation of Th17 cells (percentage of IL17 secreting CD4+ T-cells) (Healthy donor Th17 cells): limited the TCR-induced activation of Th17 cells | suppressive function of human Tregs [2]: maintained | B-cell receptor pathway activation (phospho-specific antibodies) [3]: effective in inhibiting | expected response at 12 weeks compared with the historical response rate of 30% [4]: will improve response
